In US8507464B2, “Phosphoramidate alkylator prodrugs” (Threshold Pharmaceuticals, Inc., priority 2005, dated 2013):

Tested on: HT29 xenograft
Test: HT-29 human colon carcinoma xenograft mouse model (Example 50)
Format: in vivo
Details: day 25, vs vehicle
Description: Female CB17/SCID mice (purchased from Charles River, Cambridge, Mass.), 7-8 weeks of age, were allowed to acclimatize for at least three days, and handled under pathogen-free conditions. Human colon carcinoma cell line HT29 was obtained from the American Type Culture Collection. The cell lines were cultured and harvested as described in Example 47 above, and inoculated at 3×10^6 cells/animal in the peritoneal subcutaneous space. […]; in saline) on the days the combination therapy was scheduled; 5FU alone (in saline), or CDDP alone.
In control groups, tumors were implanted in two locations as part of a separate study of effect of location on control group tumor growth. […] The body weight and tumor volume were measured as described in Example 47. Tumor growth inhibition measured on day 25 when vehicle tumors had reached the maximal size and animals in that group were sacrificed is tabulated below.

SMILES	% Inhibition vs Group 4 (Group 6: CDDP 5 mg/kg iv once)	% Inhibition vs Group 4 (Group 7: Compound 24 3 mg/kg ip (q1d × 5)/week × 3 week)	% Inhibition vs Group 4 (Group 8: Compound 24 6 mg/kg ip (q1d × 5)/week × 3 week)
N.N.[Cl][Pt][Cl] [Cisplatin, cis-Diaminedichloroplatinum (II), reference compound]	37.4%		
O=[N+]([O-])c1ccc(COP(=O)(NCCBr)NCCBr)o1 [Compound 24]		44.1%	42.1%
